For part of its entries the source gives two or more results. This is not the full list of results. The source may hold further records. The values listed for one entry are repeated measurements across runs, samples, wells, individuals or studies. Additions like (4×) count equal records among those shown.

Data on one compound can be found in PubChem BioAssay AID1919015 (Molecular Pharmacology Branch, DTP, NCI, 2023).

This assay has as its system OVCAR-5 complex spheroids with HUVEC/MSC, viability, % test/control. In words: Anticancer human tumor OVCAR-5 cell line growth inhibition [AhR].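 Further: spheroids exposed to compounds for 7 days; 100% = DMSO vehicle control wells.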 The following applies: compound alone 10 µM; stronger effect = lower value. An excerpt:
Multicellular complex tumor spheroid response to aryl hydrocarbon receptor antagonists in combination with a variety of drugs and investigational agents in selected tumor cell lines
The current study was undertaken to assess response to aryl hydrocarbon receptor antagonists in combination with standard-of-care drugs and investigational agents in solid tumor complex spheroid models. Complex spheroids include a stromal component modeled by human endothelial cells (HUVEC) and fibroblasts modeled by human mesenchymal stem cells (MSCs). The concentration ranges selected for each drug and investigational agent were based upon clinically achievable concentrations if the clinical Cmax of the agent was known.
Compounds. […] If the clinical Cmax for an agent had not been determined, the highest concentration tested was 10 microM (Table 1). […]

Consider `Cc1cncc(-c2nc(NCCc3c[nH]c4ccccc34)c3ncn(C(C)C)c3n2)c1`, for which the viability, T/C was 29.3, 14.6, 11.2, 16 (2×), 15.2, 21.2, 12.8, 11.8, 10.6, 14.1, 17.4, 15.6, 17.6, 18.6, 25.2, 4.2, 12.5, 18.7, 20.6, 22%.
